In PubChem BioAssay AID1030 (National Center for Advancing Translational Sciences (NCATS), 2008):
Hit rate of the full screen: of about 220,000 compounds, about 16,000 (7.3%) were called active. The shares of active, inactive and inconclusive entries below differ from those in the screen. Calls follow the shape of the dose curve; as a rule, active = well fitted inhibition curve with a large enough effect (not every such curve was filed as active); inconclusive = small, poorly fitted or top-dose-only effect, or another doubt; inactive = no such curve, though single readings can be large or run the other way. A potency beside an inconclusive call is a rough fit, not a confirmed value.

Target: Aldehyde dehydrogenase 1A1 (Homo sapiens) (UniProt P00352)
Assay: qHTS Assay for Inhibitors of Aldehyde Dehydrogenase 1 (ALDH1A1)
Conditions: Purified ALDH1A1, NADH fluorescence, propionaldehyde substrate; series mostly up to 75.3 µM
Potency is read from the fitted curve at half-maximal effect; tags tell the direction and shape of the fitted curve.

UniProt P00352, sequence (P00352 whole entry, looked up): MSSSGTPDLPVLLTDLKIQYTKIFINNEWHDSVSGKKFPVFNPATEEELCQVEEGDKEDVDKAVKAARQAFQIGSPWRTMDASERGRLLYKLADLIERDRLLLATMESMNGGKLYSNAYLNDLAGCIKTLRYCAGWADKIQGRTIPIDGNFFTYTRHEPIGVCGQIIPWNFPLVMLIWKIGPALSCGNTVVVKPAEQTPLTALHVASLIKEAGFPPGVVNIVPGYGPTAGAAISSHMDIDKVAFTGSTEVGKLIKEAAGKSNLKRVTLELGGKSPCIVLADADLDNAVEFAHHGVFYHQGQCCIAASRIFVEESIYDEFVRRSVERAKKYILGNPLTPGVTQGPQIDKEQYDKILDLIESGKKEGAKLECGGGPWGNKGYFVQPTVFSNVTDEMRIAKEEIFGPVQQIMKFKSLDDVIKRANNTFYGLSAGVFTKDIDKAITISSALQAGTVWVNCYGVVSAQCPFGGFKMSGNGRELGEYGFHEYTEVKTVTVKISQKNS

Potency, inactive:
O=C(NNc1ccc([N+](=O)[O-])cc1)c1ccccc1Cl, Cc1ccc(-c2cnc3c(Cl)c(C)nn3c2)cc1, O=C(Cc1ccccc1)N/N=C/C=C/c1ccccc1[N+](=O)[O-], Cc1cc(NS(=O)(=O)c2ccc(NC(=O)Nc3ccc4c(c3)OCO4)cc2)no1, CC(C)c1csc(CN2CCC(N3CCC(C(=O)N4CCOCC4)CC3)CC2)n1, O=C(NCc1ccncc1)C(=O)N/N=C/c1cccnc1, N#Cc1ncn(-c2ccc(Oc3ccccc3)cc2)c1N

Potency, active:
O=C(CN(Cc1ccccc1)C(=O)c1cc2c(s1)CCC2)NCc1cccs1 0.447 µM, COc1ccc(C(=O)CSc2[nH]c(=O)cc(C(F)(F)F)c2C#N)cc1 17.8 µM, Cc1nc(NC(=O)CCl)sc1C(=O)N(C)C 31.6 µM, COc1ccc(OC)c(C(=O)CSc2nc3cccnc3n2C)c1 22.4 µM, Cc1ccc2cc3cc(C(=O)N4CC(C)CC(C)C4)oc3nc2c1 (stereo not given) 25.1 µM, Nc1ccc(N2CCOCC2)c2nonc12 20 µM, N=C1C(c2nc3ccccc3s2)=C(O)CN1Cc1ccco1 22.4 µM

Potency, inconclusive:
C=CCn1c2ccccc2c2nnc(SC(CC)C(=O)Nc3sc4c(c3C#N)CCCC4)nc21 (stereo not given) 10 µM [inhibitor, partial curve], Cc1cc(=O)oc2cc(OC(C)C(=O)NCC3CCCO3)ccc12 (stereo not given) 39.8 µM [inhibitor, single point], Nc1ccn(Cc2ccccc2F)n1 25.1 µM [inhibitor, single point], CCOC(=O)Nc1sc(C(=O)N(C)C)c(C)c1C(=O)OCC 44.7 µM [inhibitor, single point], CCn1c(NN)nc2sc3c(c2c1=O)CCC3 39.8 µM [inhibitor, single point], NCCn1c(-c2ccccc2)cc(C(=O)O)c1-c1ccccc1F 39.8 µM [inhibitor, single point], COCCn1c(SCC(=O)c2ccc3c(c2)OCCO3)nnc1-c1ccco1 35.5 µM [inhibitor, single point], COc1ccc(NC(=O)c2ccco2)cc1NC(=O)c1ccc(C)cc1 5.62 µM [inhibitor, full curve], O=C(N/N=C/c1cccc([N+](=O)[O-])c1)c1ccc2c(c1)OCCO2 44.7 µM [inhibitor, single point], CC(NC(=O)C12CC3CC(CC(C3)C1)C2)C(=O)N/N=C/C1=C(N2CCOCC2)C(=C\c2cccc([N+](=O)[O-])c2)/CC1 (stereo not given) 28.2 µM [inhibitor, partial curve], c1cnc2c(SCc3ccc(-c4nnco4)cc3)cccc2c1 22.4 µM [inhibitor, partial curve], CCOc1ccc(Br)cc1S(=O)(=O)Nc1cccc(S(=O)(=O)NC2=NCCC2)c1 12.6 µM [inhibitor, partial curve], CCOC(=O)c1cc(C#N)c(N2CCNCC2)nc1C(F)(F)F 35.5 µM [inhibitor, single point], CCOc1cc(C2Nc3ccccc3C(=O)N2c2ccccc2OC)ccc1O (stereo not given) 35.5 µM [inhibitor, single point], Nc1c(Cl)cc(Cl)cc1C(=O)OCC(=O)NC1CC1 31.6 µM [inhibitor, partial curve], CC1CCCCC1NC(=O)C1CCN(S(=O)(=O)c2ccc(-n3cnnn3)cc2)CC1 (stereo not given) 2.82 µM [inhibitor, full curve], Cc1ccc2c(c1)C(N1CCCC1=O)CC(c1ccco1)N2 (stereo not given) 35.5 µM [inhibitor, partial curve], CCOC(=O)c1ccc(N2C(=O)c3n[nH]c(C)c3C2c2ccccc2)cc1 (stereo not given) 39.8 µM [inhibitor, single point], CC(C)=CC[C@@H](O)C1=CC(=O)c2c(O)ccc(O)c2C1=O 15.8 µM [inhibitor, partial curve], COCCSc1ccccc1C(=O)Nc1cc(C)on1 18.9 µM [inhibitor, partial curve, poor fit], Cc1cc([N+](=O)[O-])ccc1-c1ccc(C2Nc3ccccc3C(=O)N2O)o1 (stereo not given) 39.8 µM [inhibitor, single point], COCN(C#N)c1nc(OC)nc(OC)n1 39.8 µM [inhibitor, single point], Cc1ccc(S(=O)(=O)Nc2ccccc2C(=O)NCc2cccnc2)cc1 28.2 µM [inhibitor, partial curve], CCCCCc1nc2c(=O)n(C)c3ccccc3c2o1 14.1 µM [inhibitor, partial curve], COC(=O)c1ccccc1NC(=O)CCS(=O)(=O)c1ccc(Br)cc1 35.5 µM [inhibitor, single point], CN(C)c1nc(-c2ccccc2)c2cnn(Cc3ccccc3)c2n1 28.2 µM [inhibitor, partial curve], CC(C)c1ccc(-c2c(C#N)c(N)nc(SCC(=O)N3CCCCCC3)c2C#N)cc1 15.8 µM [inhibitor, partial curve], O=[N+]([O-])c1ccc(N2CCOCC2)cc1SCc1ccco1 39.8 µM [inhibitor, single point], O=C(NC1CCCC1)c1cnn2c(C(F)(F)F)cc(-c3ccco3)nc12 39.8 µM [inhibitor, single point], O=C(COC(=O)CCSc1ccc(Cl)cc1)NCc1ccco1 35.5 µM [inhibitor, single point], COc1ccc2c(c1)OC1(O)COc3cc(OC)c(OC)cc3C1=C2 (stereo not given) 31.6 µM [inhibitor, single point]
